From the RNAGym collection of RNA variant scans (doi:10.1093/nar/gkz1192) come the findings set out here.

B1: CPEB3 Ribozyme (parent)
chain: UAACAGGGGGCCACAGCAGAAGCGUUCACGUCGCAGCCCCUGUCAGAUUCUGGUGAAUCUGCGAAUUCUGCUGUAUAUCUC

The source gives no read counts; variants with many changes may rest on few reads.

In this data set the parent is B1. In words: self-cleavage, relative activity (ratio to wild type); higher = more cleavage; in vitro, sequencing. An outline of the steps:
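Barcoded CPEB3 ribozyme mutants, produced by rounds of error-prone PCR, self-cleaved while being transcribed with T7 RNA polymerase for 5 hours at 37°C and during a subsequent 15 min DNase I step before EDTA was added. Sequencing of template-switched cDNA on Illumina gave cleaved and total reads, and DNA sequencing assigned barcodes to variants. Each variant's relative activity is its cleaved/total read fraction divided by the unmutated ribozyme's fraction, averaged across three batches. A variant needed a minimum of 5 reads.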
For A13G U49C U67C, the self-cleavage amounted to 0.14. As to A13U A15G U31G C34U A45G U66C, the self-cleavage came to 0.07.

Consider C14U A28G U48C A64U, for which the self-cleavage worked out at 0.1. For C14G A15C U49C A56G the value was 0.2; for A13U C27U A45G U80C, 0.09.

Regarding C14U A21G A56U A64G U78C, the self-cleavage worked out at 0.19. Consider C14A A20U G53C U78C, for which the self-cleavage is 0.23.

On to A13U U51C U58G U72A U80C, for which the self-cleavage stood at 0.52. Consider A13U A20U A35U A64G A65G U69C, for which the self-cleavage is 0.05. For A13U U26C U78C, the self-cleavage is 0.25.

For the variant A13U C29G A47G U49C G63A U74G, the self-cleavage amounted to 0.12. Consider A13U U26A C32U C44U A65G U69A U80C, for which the self-cleavage came to 0.08. For A13U A45U A57G the value was 0.38. Turning to A13U U25C U43C A64U U76A, the self-cleavage is 0.09.

As to A13U A15U U51C G53A U74C, the self-cleavage was determined as 0.77. For A13U U41A U69A U78C U80A the value was 0.05. As for C14U U25A A65G, the self-cleavage stood at 0.36. Then A13U A21G U60C U74C, with 0.18; and A13U U48C U49C, with 0.39; and A13G U43C A56U U80C, with 0.29. For the variant A13U U31C U60C U67C U78C, the self-cleavage is 0.19.

In the case of A13G U72A U80A, the self-cleavage came out at 0.63. For A13G U41G G52A U80C the value was 0.2; for C14U A18G A28C U60C, 0.08. For A13G U41A A57G U78C, the self-cleavage amounted to 0.3.

A13U C27A C34G C40U U60A U78C: the self-cleavage was determined as 0.13. As for A13G U48C U66A, the self-cleavage amounted to 0.34. With A13U A21G A65G U67G U72C, the self-cleavage was found to be 0.14. On to A13U U41C A47G A65G U72A, for which the self-cleavage was 0.84. In the case of A13U A18U A28U U41C A56U, the self-cleavage turned out to be 0.09. For the variant A13U U66C U76A, the self-cleavage amounted to 0.35. Regarding A13U U25A U43C, the self-cleavage amounted to 0.28. As for A13U U69A U72A, the self-cleavage turned out to be 0.3. For A13U A15G C23A U26C the value was 0.24. For A13U A20U A47G U76C, the self-cleavage amounted to 0.27. With A13U A64G U76A, the self-cleavage amounted to 1.19. On to A13U U26C U31A C38U U41A U48C A56U, for which the self-cleavage is 0.07. Consider A13U U51A U69G, for which the self-cleavage is 0.9.

Turning to A13U U66C C79A, the self-cleavage was 0.53.

As for A13G U51A G52C U69A U78C, the self-cleavage was 0.51.

As for A13U A56G U60C U76C, the self-cleavage is 0.38. With A13G U49C A56U U69A, the self-cleavage was determined as 0.05. As for C14U C23U U43A A45G U60C U67A U72A, the self-cleavage came to 0.05. For A13U A56G U67C, the self-cleavage was 0.25.

Consider A13U G24A U48C A57G, for which the self-cleavage is 0.09. For A13G U43A U51C the value was 1.07; for A13U A20G A28G A45U, 0.19; for A13U A65G U67A, 0.37. For A13U A45G U78C, the self-cleavage stood at 1.06. For the variant A13U A18G U72C, the self-cleavage stood at 0.5. For the variant A13G U58C U60A U80A, the self-cleavage is 0.15. As for A13U A15U U43C A65G U69A U72C U78A, the self-cleavage was 0.11. As for A13U U54C G55A U58C, the self-cleavage was 0.12. As for A13U C17U A21G A35U A56G U67C A77G, the self-cleavage stood at 0.05. Turning to A13U U41C U72A, the self-cleavage is 0.38. Take C14A A20G A45G U58C G61C: the self-cleavage amounted to 0.04.

C14U A20C A28G G33U: the self-cleavage worked out at 0.06. As for A13U A18U A21G C23A U31A A45G U67A, the self-cleavage was 0.08. Turning to A13U U54C A75U, the self-cleavage was 1.27. Regarding A13G U31C U72A, the self-cleavage worked out at 0.25. Turning to A13G U67C U80A, the self-cleavage came out at 0.11. Then A13G U49A A56G U58A U67C, with 0.09; and C14U A15G A35U U41A U43A A45G, with 0.04. As for A13U U26C C68A, the self-cleavage is 0.17. As to A13G U74A A77G, the self-cleavage came out at 1.22. Take C14U A18G G19U C23U A45U U51C G52C: the self-cleavage is 0.05.

A13U U26C U49C: the self-cleavage came out at 0.09. Turning to A13G U41A A47G A57G A64G U69A A75G, the self-cleavage worked out at 0.09. Consider A13U A20U U43A U80A, for which the self-cleavage worked out at 0.95. Take A13U A18U A35G G61C: the self-cleavage is 0.34.

Take A13U U26A A56G: the self-cleavage amounted to 0.55.

As to A13U G24A U51C U60C A64G U74C, the self-cleavage worked out at 0.1.

Take A13U U54G U60A C62A: the self-cleavage was 0.41. On to C14U G30U C34G A75G, for which the self-cleavage was 0.07. As for A13U A35G A56C U78C, the self-cleavage amounted to 1.13. For A13U A18U U26C U41C A75G the value was 0.08; for A13U U25C U49A A56G, 0.07. Consider A13U A45G A64G U66C A75G, for which the self-cleavage was 0.24.

As to A13U U49A G53C U58A, the self-cleavage amounted to 0.17. For the variant A13G U31C A47G, the self-cleavage is 0.29.

Regarding C14A G19A A65U U76A, the self-cleavage was 0.03. As to A13U G30A A35G U78C, the self-cleavage turned out to be 0.1. Then A13U A15G A35G A75G, with 0.96. Then A13U U66C U74C, with 0.28; and A13U G24U A28U U51A U60C, with 0.06. A13U A15G C17G A64G: the self-cleavage came out at 0.46.

With A13U A35G U66C, the self-cleavage came out at 1.34. For A13U A35U U60A U80C the value was 0.11; for A13U U26A C38G A57G U78C, 0.19; for A13U A45G U49C U66C U74A, 0.15. In the case of A13U U67G C71U, the self-cleavage worked out at 0.27.

In the case of C14U C32U G55U, the self-cleavage amounted to 0.26. Take A13U A20U U26A U31C U41C U54G: the self-cleavage was 0.07. For A13U A47G G53A the value was 1.38; for C14U A35G A45G A56G, 1.29; for A13G U60C U67C, 0.38.

As for A13U A15U U41G A45U, the self-cleavage worked out at 0.06. C14U A35G U54C U69C: the self-cleavage came out at 1.2.

With A13U A15U A28G U41G A56U A64G, the self-cleavage came out at 0.11. Take A13G U41C C68U: the self-cleavage was 0.55.

A13U A15U A21U A45U A64G: the self-cleavage stood at 0.08. Then A13U U26C A45G A57G, with 0.15.

For the variant C14U A20G U41C C81A, the self-cleavage is 1.04. Take A13U A20U A28G A35G U76C A77U: the self-cleavage turned out to be 0.24.

As to A13U U48C U66C G73U A77U, the self-cleavage stood at 0.48. As for A13U U31A C68U U80C, the self-cleavage stood at 0.58. As for A13U U31C U41C A45U U54A U80A, the self-cleavage is 0.55. As to A13U U41A A56U A64G U72C A77G, the self-cleavage was 0.05.

With A13U A21G A45G A56G, the self-cleavage stood at 0.21.

As to A13U A15G U26C U67C U72C U76A, the self-cleavage came to 0.12. Then A13U U25C U31C A47G U67A U78C, with 0.05; and A13G U31C A64G U69A, with 0.11. For A13U C29U U41G, the self-cleavage is 0.17.

A13U A21G A35U C50A: the self-cleavage is 0. In the case of A13U U41C A56G A64U, the self-cleavage worked out at 0.36. For the variant A13U G16A U54A, the self-cleavage is 0.44.

C14U A20G A57G U67C U72C: the self-cleavage was 1.12.

Consider A13U U31C U43C G63A, for which the self-cleavage came out at 0.23.

Turning to C14A C40U U60A U78A, the self-cleavage stood at 0.13. Take A13U U54C A56U U80C: the self-cleavage turned out to be 0.76. On to C14A G33A U69A U80G, for which the self-cleavage stood at 0.11.

Consider A13U U51C U58C U60A, for which the self-cleavage stood at 0.12. Turning to A13U U49C U54C U67C, the self-cleavage was 0.13. Then A13U U41A G52C U60A, with 0.06; and A13U A15G C23A U66C U67C U72C, with 0.07; and A13U A45U G61A U66C, with 0.15. Then A13U A18G U31C U72C, with 0.13; and A13G U60C U69A U78C, with 0.35.

Regarding A13U U49A C50U G63A A64G, the self-cleavage amounted to 0.51. In the case of C14U A15G A18G A47G U51C U67C, the self-cleavage was determined as 0.22.

Turning to A13U C23U A35G U43A, the self-cleavage was 1.21. Then C14U C23U A64G, with 0.25. For the variant A13U A35G U69C, the self-cleavage was 1.19. For the variant C14U A18G A45G G53A, the self-cleavage came to 0.7.

As for A13U U41A U51C G73A, the self-cleavage came out at 0.27. In the case of A13U G33U A47G, the self-cleavage is 0.09. For A13U C29U U48C A65G the value was 0.07; for A13G U67C A77G, 0.17; for C14G A57G U67C, 0.14.

Regarding A13U U26A U78A, the self-cleavage was found to be 1.05. Regarding A13U A28G U80A, the self-cleavage worked out at 0.99. As to C14U A15U U43C U67C, the self-cleavage is 0.06. In the case of A13G U60C C79A, the self-cleavage came to 0.71.

For A13G U51C C62U, the self-cleavage was found to be 0.28. On to A13U A15U U25G, for which the self-cleavage is 0.28. With A13G U51C U60A U67C A77G, the self-cleavage was 0.14. On to A13U U26G U31C G42U A45C A56U C71A, for which the self-cleavage turned out to be 0.14. A13U C14A A15G A57G: the self-cleavage was found to be 0.73.

For A13U A21G U67A A77G, the self-cleavage was found to be 0.09.

For A13U U69A U74C, the self-cleavage worked out at 0.83. As to C14U C39U U41A U51C A57G A77G U78C, the self-cleavage is 0.06. On to A13U A28U U69C U74C, for which the self-cleavage came out at 0.38. Then A13U C62A A65G, with 0.19.

With A13G U49C U80A, the self-cleavage is 0.42.

For A13G U49C U80C, the self-cleavage worked out at 0.66. For C14A A21U U43A U60C U69C the value was 0.09.

A13U A28G U48C G53U: the self-cleavage stood at 0.3. Turning to A13U A47G U78A, the self-cleavage worked out at 1.36. With A13G U54A U78C, the self-cleavage was found to be 1. A13U A18G A28U U41A: the self-cleavage came out at 0.18.

For the variant A13U A28C U78C, the self-cleavage turned out to be 0.77. With A13U A20G U41C U43C, the self-cleavage came out at 0.31. Then A13U U49A C50U, with 0.56; and A13U U26A C38G U51G A57G U74A A77G, with 0.04.

Regarding A13U C14U U69C U74A U78C, the self-cleavage worked out at 0.31. For A13U U25C U31C A45G, the self-cleavage turned out to be 0.15. Regarding A13U U41C A56G C59A U60A, the self-cleavage came out at 0.22.
